Laboratory results: PubChem BioAssay AID894 (National Center for Advancing Translational Sciences (NCATS), 2007)
Among all 150,000 compounds or so, about 6,500 (4.3%) were called active. Inconclusive results, whose numbers are uncertain, are shown with a selection of clear calls. Calls come from the whole dose curve; as a rule, active = well fitted inhibition curve with a large enough effect (not every such curve was filed as active); inconclusive = small, poorly fitted or top-dose-only effect, or another doubt; inactive = no such curve, though single readings can be large or run the other way. Potencies of inconclusive entries are left out as doubtful fits.

Each compound was assayed against 15-hydroxyprostaglandin dehydrogenase [NAD(+)] (Homo sapiens) (UniProt P15428) (assay: qHTS Assay for Inhibitors of HPGD (15-Hydroxyprostaglandin Dehydrogenase)). Conditions: purified HPGD, NADH fluorescence kinetic, PGE2 substrate; activity change, negative = inhibition: hits give low values.
Outline: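 NADH formation kinetics: reaction with 30 uM PGE2 and 1 mM NAD+ (final), 20 nM enzyme, Tris-HCl pH 8 with Tween 20, after 15 min compound preincubation at room temperature. Fluorescence change, last versus first of five reads.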
% is set by controls: 0 for no effect and ±100 for the full control effect; potency is the fitted concentration of half-maximal effect; tags give direction and shape of the fitted curve.

Sequence of UniProt P15428 (P15428 whole entry, looked up): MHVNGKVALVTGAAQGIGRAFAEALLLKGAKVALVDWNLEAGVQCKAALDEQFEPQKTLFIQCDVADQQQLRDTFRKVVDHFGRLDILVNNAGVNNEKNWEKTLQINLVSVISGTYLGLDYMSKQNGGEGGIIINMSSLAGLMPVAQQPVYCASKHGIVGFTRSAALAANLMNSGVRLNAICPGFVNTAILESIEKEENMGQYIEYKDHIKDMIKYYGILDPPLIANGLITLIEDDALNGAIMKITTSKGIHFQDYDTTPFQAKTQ

Structure (SMILES)	activity change, negative = inhibition	Potency
Cc1ccc2cc(C)c3nnc(SCC(=O)Nc4nc5c(s4)CCCC5)n3c2c1C	inactive: -9.21%	–
O=C(Nc1ccccc1-c1nnn(CC(=O)N2CCCc3ccccc32)n1)c1ccco1	–	inconclusive [inhibitor, single point]
CCn1nc(C(=O)OCC(=O)c2cc(C)n(Cc3cccs3)c2C)c2ccccc2c1=O	–	inconclusive [inhibitor, partial curve]
O=C(c1ccco1)n1nc(-c2ccco2)nc1SCc1ccccc1	–	inconclusive [inhibitor, partial curve]
COc1cc(-c2nnc3sc(C4CCCCC4)nn23)cc(OC)c1OC	–	inconclusive [inhibitor, partial curve, poor fit]
CC(=O)c1c(C)[nH]c(C(=O)N2CCCCCC2)c1C	–	active: 12.6 µM
Cc1ccc(NC(=O)c2cc(N3C(=O)C=CC3=O)ccc2N2CCOCC2)cc1Cl	–	active: 1.26 µM
O=C(CSc1nnc(-c2cccs2)n1CC1CCCO1)c1cc2ccccc2o1 (configuration not stated)	–	inconclusive [inhibitor, single point]
Cc1c(O)ccc2c3c(c(=O)oc12)CCCC3	–	inconclusive [inhibitor, partial curve]
COc1cccc(Nc2ncnc3c2cnn3C)c1	inactive: -9.98%	–
O=C(Cn1nnc(-c2ccccc2NC(=O)c2ccco2)n1)NC1CCCCC1	–	inconclusive [inhibitor, single point]
CCOc1ccc(OCCSc2nc3ccccc3[nH]2)cc1	–	active: 25.1 µM
COC(=O)c1cccc(C23CC4(C2)[C@H](CN(Cc2cccnc2)[C@@H]4c2ccccc2)C3c2ccccc2)c1 (some centres not stated)	inactive: -8.82%	–
O=C(CCCOc1ccccc1)N1CCCCC1	–	active: 3.98 µM
COC(=O)c1ccc(SCC(=O)NC2CCCC2)c([N+](=O)[O-])c1	–	active: 35.5 µM
Cc1nc2ccccc2cc1OCc1ccccc1	inactive: -9.38%	–
O=C(Cn1cnc2cc(Cl)ccc2c1=O)Nc1ccc2c(c1)OCO2	inactive: -14.3%	–
C=CCOC(=O)COc1ccc2c(C)c(C)c(=O)oc2c1C	–	inconclusive [inhibitor, partial curve]
CCOC(=O)N1CCN(CCC(=O)c2ccc(Cl)cc2)CC1	–	active: 25.1 µM
Cc1cc(Cl)ccc1OCCCC(=O)N1CCOCC1	inactive: -14.9%	–
CCOC(=O)c1cc(=O)n2[nH]c(-c3ccc(C)cc3)cc2n1	–	inconclusive [inhibitor, partial curve]
Cc1ccc(C(=O)N2CCOCC2)cc1Cl	–	inconclusive [inhibitor, partial curve]
CC1CCC(NC(=O)c2ccc(CNc3c(NC4CCCCC4)c(=O)c3=O)cc2)CC1 (configuration not stated)	–	inconclusive [inhibitor, partial curve]
CCc1c(C)sc(NC(=O)c2cccs2)c1C(N)=O	–	active: 8.91 µM

Structure (SMILES)	activity change, negative = inhibition	Potency
Cc1ccc2nc3sc(C(=O)N4CCOCC4)c(N)c3cc2c1	–	active: 25.1 µM
CCn1c(=O)c(=O)[nH]c2cc(C(=O)NCC3CCCCC3)ccc21	–	inconclusive [inhibitor, partial curve]
COc1ccccc1C1/C(=C(\O)c2ccc3c(c2)OCCO3)C(=O)C(=O)N1CCCN(C)C (configuration not stated)	inactive: -6.56%	–
COc1ccc(Sc2ccc(/C=C3\C(=O)NN(c4ccccc4)C3=O)o2)cc1	–	active: 15.8 µM
CCN(C(=O)CSc1nc(-c2ccccc2)c(-c2ccccc2)[nH]1)C1CCS(=O)(=O)C1 (configuration not stated)	–	inconclusive [inhibitor, partial curve]
CCn1c(N)c(C(=O)NCC2CCCO2)sc1=S (configuration not stated)	–	active: 6.31 µM
COc1ccc2cc3cc(C(=O)NCCN4CCN(c5ccccc5F)CC4)oc3nc2c1	–	inconclusive [inhibitor, partial curve]
COc1ccc(Nc2nc(C(=O)NCCCN3CCOCC3)cs2)cc1	inactive: -12.8%	–
CCOC(=O)/C(=C/C=C1\Sc2ccccc2N1CC)C(C)=O	–	active: 28.2 µM
c1ccc(Nc2cccc(Nc3ccccc3)c2)cc1	inactive: 7.82%	–
O=C(Nc1nncs1)c1ccccc1NS(=O)(=O)c1cccs1	–	inconclusive [inhibitor, partial curve]
O=C(CN(Cc1ccc(Cl)c(Cl)c1)S(=O)(=O)c1ccccc1)N/N=C\c1ccc2c(c1)OCO2	–	inconclusive [inhibitor, single point]
COc1ccc(NC(=O)Nc2nnc(N3CCC(C)CC3)s2)cc1OC	inactive: -3.41%	–
O=C(Nc1ccc(-c2nc3ncccc3o2)cc1)c1ccc(Br)o1	–	inconclusive [inhibitor, partial curve]
COc1cccc(OCc2cc(/C=N/NC(=O)c3nc(Cl)c(Cl)c(N)c3Cl)ccc2OC)c1	–	inconclusive [inhibitor, single point]
O=C1NC(=S)S/C1=C\c1ccc(SCc2ccccc2)o1	–	active: 17.8 µM
COc1cc(NC(=S)NCCN2CCOCC2)cc(OC)c1	inactive: -16.4%	–
O=C(Cc1coc(-c2ccc(F)cc2)n1)NC1CCCCC1	–	active: 17.8 µM
COc1ccc(Cl)cc1NC(=S)NCc1ccccn1	–	inconclusive [inhibitor, partial curve, poor fit]
Cn1c(CS(=O)Cc2c(Cl)cccc2Cl)nnc1SCc1c(Cl)cccc1Cl (configuration not stated)	inactive: -10%	–
O=C(Nc1cccc(-c2cn3cccnc3n2)c1)c1ccco1	–	inconclusive [inhibitor, partial curve]
CC(=O)N1N=C(c2ccc(Cl)cc2)OC1(C)C	–	inconclusive [inhibitor, partial curve]
COc1c2ccoc2nc2c(OC)c(O[C@@H]3O[C@H](C)[C@@H](O)[C@@H](O)[C@H]3O)ccc12	–	inconclusive [inhibitor, partial curve]
Cc1ccc(S(=O)(=O)N(C(=O)c2ccncc2)c2ccc(OC(=O)c3ccncc3)c3ccccc23)cc1	–	active: 20 µM

Structure (SMILES)	activity change, negative = inhibition	Potency
COC(=O)C1=C(C)NC2=C(C(=O)CC(C)(C)C2)C1c1cnn(C)c1C (configuration not stated)	–	inconclusive [inhibitor, partial curve]
O=C(COC(=O)c1ccccc1Nc1ccccc1)NCc1ccccc1Cl	–	inconclusive [inhibitor, partial curve]
C=C(Cl)COc1ccc2c(CCC)cc(=O)oc2c1	–	inconclusive [inhibitor, partial curve]
COc1ncc2nc(-c3ccccc3)c(=O)n(Cc3cccs3)c2n1	–	inconclusive [inhibitor, single point]
Cn1nnnc1SCC1=C(C(=O)O)N2C(=O)C(NC(=O)C(OC=O)c3ccccc3)C2SC1 (configuration not stated)	inactive: -6.52%	–
CCCCCc1ccc(-c2ccc(/C=C/C(=O)O)cc2)nc1	–	inconclusive [inhibitor, partial curve]
C=CCOC(=O)C1=C(C)NC(SCC(=O)Nc2ccc(C)c(Cl)c2)=C(C#N)C1c1ccco1 (configuration not stated)	–	inconclusive [inhibitor, partial curve]
CC(=O)c1cc2c(cc1NC(=O)CCC1CCCC1)OCO2	–	inconclusive [inhibitor, partial curve]
CCN1C(=O)S/C(=C/c2cn(C)c3ccccc23)C1=O	–	inconclusive [inhibitor, partial curve, poor fit]
Cc1cccc(C(C)C)c1NC(=O)COC(=O)COc1ccc2c(C)cc(=O)oc2c1	–	inconclusive [inhibitor, partial curve]
Cc1ccc(C(=O)Nc2c(C)cc(-c3ccc(Cl)cc3)oc2=O)cc1	–	inconclusive [inhibitor, partial curve]
COc1ccc(Oc2ncc3nc(C)c(=O)n(Cc4cccs4)c3n2)cc1	inactive: -9.34%	–
Cc1ccccc1Cn1nc(C)c(NC(=O)c2cc3nc(-c4ccco4)cc(C(F)(F)F)n3n2)c1C	–	inconclusive [inhibitor, single point]
O=S(=O)(c1ccc2oc3ccccc3c2c1)N1CCOCC1	inactive: -4.05%	–
COC(=O)c1sccc1NC(=O)c1c(C)noc1C	–	inconclusive [inhibitor, partial curve]
O=C(Nc1ccccc1)N1CCCC2(CCN(S(=O)(=O)c3ccccc3)CC2)C1	inactive: -1.24%	–
CN(c1ccccc1)S(=O)(=O)c1cccc(NC(=O)Nc2ccc(Cl)cc2C#N)c1	–	inconclusive [inhibitor, partial curve]
N#CCCN1CCN(S(=O)(=O)c2ccc(C#N)cc2)CC1	inactive: -8.87%	–
O=C(NCc1ccco1)c1ccccc1F	–	inconclusive [inhibitor, single point]
COc1cccc(-c2csc(N3CCN(C(=O)NC45CC6CC(CC(C6)C4)C5)CC3)n2)c1	inactive: -5.06%	–
COc1ccccc1CN1C(=O)CN(C2CCCCCC2)C(=O)C1c1ccc(F)cc1 (configuration not stated)	inactive: -3.98%	–
N#C/C(=C\c1cn(Cc2ccccc2C#N)c2ccccc12)C(=O)NCc1cccs1	–	inconclusive [inhibitor, partial curve, poor fit]
O=C(CCCCn1c(=O)[nH]c2ccccc2c1=O)NCCC1=CCCCC1	–	inconclusive [inhibitor, partial curve]
O=C(OCC#CCSc1nc2ccccc2o1)c1ccco1	inactive: -5.74%	–
